Experimental data published in ChEMBL document CHEMBL4888484, “Replenishing the malaria drug discovery pipeline: Screening and hit evaluation of the MMV Hit Generation Library 1 (HGL1) against asexual blood stage Plasmodium falciparum ,using a nano luciferase reporter read-out” (2022).
Hit rate of the full screen: of about 150,000 compounds, about 540 (0.36%) showed an effect of 50% or more. The list shows a part of the results.

tested on: Plasmodium falciparum; experiment: Primary screen in NF54 nanoGlo assay, in single point, at 2uM, 72h; a lower Z score goes with more inhibition; assay type: functional, Erythrocyte; details: timepoint 72 hour

Compound | % Inhibition | Z score
CCCc1nnsc1C(=O)NCCc1nc2c(c(C(F)(F)F)n1)CCCC2 | -9% | 0.98
CCOC(=O)NCCC(=O)NC(C)C1CCCO1 (stereo unspecified) | 0% | 0.05
Cc1cccc(Nc2ncncc2-c2nc(-c3ccccc3)no2)c1C | -5% | 0.73
CC(=O)N(CCCN1CCOCC1)[C@H]1CCCN(C(=O)c2cc(C)n(C)n2)C1 | 5% | -0.62
Cc1ccc(-c2nn(C)cc2C(=O)N2C[C@H]3CN(C)C[C@@]3(C)C2)o1 | -6% | 0.82
Cc1cc(-c2cc(S(=O)(=O)Nc3cccc(Cl)c3)c(C)s2)on1 | 2% | -0.18
c1ccc(-n2nnnc2N2CCC[C@H](c3nccn3CC3CC3)C2)cc1 | 5% | -0.59
CCn1cc(S(=O)(=O)NC(=O)[C@@H](C)Cc2ccc(C)cc2)cn1 | -10% | 1.94
Cc1ccc(C)c(-n2nc(C)nc2C2CCNCC2)c1 | -4% | 0.64
O=C(c1n[nH]c2c1CCCC2)N1C[C@H]2CC[C@@H](C1)N(Cc1ccccn1)C2=O | -12% | 1.84
COc1cc(-c2nc3ccccc3c(=O)[nH]2)ccc1OCc1ccc(Br)cc1 | -40% | 4.75
COc1ccc2cc1Oc1cccc(c1)CO[C@H]1CN(C(=O)c3cc(=O)[nH]c4ccccc34)C[C@@H]1NC(=O)CN(C)C2 | 17% | -2.3
CCn1nc(C(=O)O)c2c1CC[C@H](NCc1cn3ccsc3n1)C2 | -15% | 2.77
O=C(O)Cn1nc(C2CCCC2)nc1-c1cccc(Cn2cccn2)c1 | -12% | 2.32
Cc1nnc([C@H]2CCN(Cc3ccco3)C2)o1 | 3% | -0.42
O=C(Cn1cccn1)N1CC2CC1CO2 (stereo unspecified) | -17% | 2.18
CC(C)=CCN1CC2(CCN(C(=O)c3ccc(C#N)cc3)CC2)CC1=O | -3% | 0.31
CC[C@@H](CNC(=O)c1cccnc1)N1CCCC1 | -14% | 1.45
Cc1nccn1CC(=O)N(C)C1CCCCC1 | -1% | 0.11
Cc1nccn1-c1cc(N2CCC(C(=O)Nc3ccc(OC(F)(F)F)cc3)CC2)ncn1 | -11% | 1.71
CCS(=O)(=O)N1CCC[C@@](F)(C(=O)NCc2ccncc2)C1 | -21% | 1.81

Compound | % Inhibition | Z score
CC1CN(C(=O)c2ccc(Cl)c(C#N)n2)C(C)CN1C (stereo unspecified) | -7% | 0.85
c1ccc(-c2nnc(CN3CCn4ccnc4C3)o2)cc1 | 4% | -0.77
Cc1cc(C)c2c(CC(=O)N3CC[C@H]4[C@H](C3)OCc3cnnn34)coc2c1C | -3% | 0.42
COC(=O)[C@H](C)NC(=O)c1cccc(C)c1 | -12% | 1.17
O=C(C1CCCCCC1)N1CCN(Cc2ccccn2)[C@@H]2CS(=O)(=O)C[C@@H]21 | -7% | 0.81
Cc1cccc(NC(=O)C[C@H](C)Cc2nnc3c(=O)n(-c4cccc(F)c4)ccn23)c1 | 4% | -0.63
O=C(CCc1ccccc1Br)N[C@H]1CCN(C2CC2)C1 | 1% | -0.17
Cc1cnccc1NC(=O)C1=Cc2ccccc2OC1 | -16% | 2.44
O=C1CC[C@H](N2CCN(Cc3ccc4c(c3)OCO4)CC2)CCN1Cc1ccc(F)cc1F | -13% | 1.72
COCCCN1CC2(CCN(C(=O)c3c(F)cccc3OC)CC2)CC1=O | -2% | 0.39
O=C(c1cc(S(=O)(=O)N2CCOCC2)cs1)N1CCC(Cc2ccccc2)CC1 | -15% | 1.77
COc1cc(C(=O)NC[C@H](C)O)cc(OC)c1OC | 31% | -3.94
O=C(NCC(CO)C1CCCCC1)[C@@H]1C[C@H]2CC[C@@H]1O2 (stereo partly specified) | 4% | -0.55
O=C(c1ccco1)N1CCC(c2nnn[nH]2)CC1 | -8% | 1.21
CN1CCN([C@@H]2COC3(C2)CN(C(=O)c2ccc(OC(F)(F)F)cc2)C3)CC1 | -10% | 1.6
Cc1cnc(C(C)(C)NCC(=O)N(C)C)s1 | 29% | -3.95
N#Cc1ccc(CN2CCC(N3C(=O)[C@H]4CCCN4C3=O)C2=O)cc1 (stereo partly specified) | -5% | 0.42
C[C@H]1CNC[C@@H]1Cc1nc(-c2ccc(N3CCCC3)cn2)no1 | 1% | -0.1
CCNC(=O)N1CCC[C@H](Oc2nc(C(C)C)nc3c2CCOCC3)C1 | -4% | 0.58
Nc1ccccc1-c1nc(C2CC2)no1 | 15% | -1.98
COCCn1nc([C@H]2CCCN(C(=O)c3ccc(C(F)(F)F)cc3)C2)n(C2CC2)c1=O | -6% | 0.68

Compound | % Inhibition | Z score
Cc1cc(=O)n(CC(=O)N2CCC(c3nccn3C)CC2)c2ccccc12 | -2% | 0.33
c1ccc(OCCNc2ccc3nnnn3n2)cc1 | -4% | 0.36
COC1(c2ccccc2)CCN(C(=O)[C@H]2CCCN(C(N)=O)C2)CC1 | -8% | 1.57
O=C(NC(CO)C(O)c1ccc(Cl)cc1)C1(C(F)F)CCCC1 (stereo unspecified) | 4% | -0.81
CCS(=O)(=O)NCCNCc1ccc(C#Cc2cn[nH]c2)cc1 | -12% | 1.55
COc1ccc([C@@H](NC(=O)CCCN(C)S(=O)(=O)c2ccc(C(C)=O)cc2)c2nccn2C)cc1 | 8% | -0.67
CN(C)S(=O)(=O)CC(=O)NCC(C)(C)Cc1cccc(Cl)c1 | 0% | 0.04
COc1ccc(-c2ccc3c(c2)OC[C@@H](N2CCCC2)[C@@H]3O)c2ccc(C)nc12 | -10% | 1.47
Cc1ccccc1C1C2C(=O)N(c3cccc4ccccc34)C(=O)C2ON1c1ccccc1 (stereo unspecified) | -3% | 0.36
CC(NC(=O)CNC(C)(CO)C1CCCCC1)c1ccco1 (stereo unspecified) | -8% | 0.8
CS(=O)(=O)c1ccccc1N1CC2CCCC2C1 (stereo unspecified) | -13% | 1.3
O=C(c1cc(OCC(F)F)ccn1)N1CCC12COC2 | -11% | 1.69
CCC(Oc1ccc2c(c1)C(c1cccc(C)c1)N(C(C)=O)CC2)C(=O)NCc1ccccc1 (stereo unspecified) | -12% | 1.36
CCn1nc(C)c(CN/C(=N\c2cccc(C)c2)NC(=O)c2ccccc2F)c1C | -16% | 2.66
Cc1nn(-c2cccc(F)c2)c2nc3c(c(N)c12)C(=O)CCC3 | 25% | -3.23
CCOc1ccc(-n2nnnc2CNS(=O)(=O)c2ccc3ccccc3c2)cc1 | 17% | -2.21
COc1ccc(C(=O)Nc2nnc(Cc3nc4ccccc4s3)s2)cc1Br | 8% | -0.96
C[C@@H](c1ccccn1)N(C)Cc1cc(CN2CCCCC2)cs1 | 15% | -2.69
CC(C)Cc1noc(CN(C)Cc2coc(C(C)C)n2)n1 | -6% | 0.79
CC(=O)N1CC[C@H]2CN(CCc3ccccc3)C[C@@]2(c2nc(C)no2)C1 | 3% | -0.42
CC[C@H](NC(=O)c1ccnc2[nH]cnc12)C(=O)OC | -12% | 2.21

Compound | % Inhibition | Z score
CCNc1ccnc(N2C[C@H](C3CC3)[C@@H](N(C)C)C2)n1 | -10% | 1.85
O=C1[C@@H]2C[C@@H](O)CN2C2(CN(Cc3ccncc3)C2)C(=O)N1Cc1ccccc1 | -1% | 0.11
CC(C)(C)CS(=O)(=O)NC(=O)Cc1c(F)cccc1F | -9% | 1.42
CCN(CC)C(=O)[C@H](C)NC(=O)c1ccoc1 | -11% | 1.77
Cc1ccc(CCC(=O)N(C)c2cccnc2N2CCCC2)s1 | 8% | -1.3
CCOC(=O)Cc1csc(NC(=O)Cc2c[nH]c3ccccc23)n1 | 33% | -4.46
O=C(c1cnn2ccncc12)N1CCCC2(CCCCC2)CC1 | -11% | 1.48
O=C(CCc1ccccn1)Nc1c(F)cccc1NC1CC1 | 5% | -0.74
CN(Cc1ccco1)C(=O)CN1C[C@H](F)C[C@H]1C(N)=O | -4% | 0.64
C[C@H](NC(=O)c1ccc(CN2C(=O)CNC2=O)cc1)c1ccc(F)cc1F | -15% | 2.65
Cc1cc(C(=O)NCC2CCCC(O)C2)nc(-c2ccc(Cl)cc2)n1 (stereo unspecified) | -15% | 1.93
CCOC(=O)N1CCN(C(=O)c2cc(-c3ccccc3F)nc3cc(-c4ccccc4)nn23)CC1 | -5% | 0.8
O=C(NC1CCCCCC1)N1CCC[C@H](Cn2cc(C3CC3)nn2)C1 | -4% | 0.64
Cn1nc(NC(=O)c2cc3c(cn2)OCCC3)cc1C1CC1 | -2% | 0.35
Cc1cc(Cl)ccc1NC(=O)c1cc2n(n1)CCCN(Cc1ccc(F)cc1)C2=O | -7% | 0.81
CC(C)c1cc(NC(=O)N2CCC[C@H](n3ccc(C(F)(F)F)n3)C2)no1 | -3% | 0.33
O=C(c1ccc(Oc2ccccc2)o1)N1CCN(c2cnccn2)CC1 | -8% | 0.8
COC(=O)C(C)(C)CS(=O)(=O)N1CCCC2(CCCCC2)C1 | -6% | 0.49
CCC(NC(=O)Nn1cnnc1)(C(F)(F)F)C(F)(F)F | 26% | -2.97
Cc1ccc(N2C[C@H](NC(=O)C3(C#N)CCOCC3)[C@@H](C3CC3)C2)nn1 | -5% | 0.75
